From patent publication US9040488B2, “Imino sugar derivatives demonstrate potent antiviral activity and reduced toxicity” (Baruch S. Blumberg Institute, priority 2008, dated 2015)

Experiments:
[1] = in vivo
[2] = in vivo; remark: listed apart in the source

For `CC(=O)O.CC1CCC(OCCCCCCN2C[C@H](O)[C@@H](O)[C@H](O)[C@H]2CO)CC1` (stereo partly shown) [CM-9-78], the “half life, oral versus intraperitoneal” value [1] was “longer half life”, the “peak serum compound concentration, oral versus intraperitoneal” value [1] was “higher peak serum compound concentrations” and the “time with plasma concentration above 30 μM” value ([1]; po, 100 mg/kg) was “at least 10 hours”. For the same compound, the “tolerability judged by body weight and food consumption” value [2] was “well tolerated”.
